Results on three molecules are retold here after US20230123178A1 (Hoffmann-La Roche, published 2023).

For assay [1], the target named is T1, human 4-1BB on cells (human, UniProt Q07011 24-255). The experiment in a line: cell-based or functional assay.
Assay [2] addresses T2, full-length human PD1 on cells (human, UniProt Q15116 25-288).
T2 construct: also PD1 on primary human PBMC subsets and on Jurkat reporter cells; also called CHO-PD1; CHO-k1-huPD1 clone 5
Kind of assay: flow cytometry on CHO-K1-huPD1 clone 5 cells.

Assay [3] addresses T2, full-length human PD1 on cells. Kind of assay: flow cytometry, freshly isolated resting human PBMCs (table title), CD4 T cells.
In assay [4] the target is T1, human 4-1BB on cells. Kind of assay: flow cytometry on HeLa-huCD137-NFkB-luc clone 26 cells.
The target of assay [5] is T2, full-length human PD1 on cells. The experiment in a line: flow cytometry, freshly isolated resting human PBMCs (table title), CD8 T cells.
Assay [6] has the same target. The experiment in a line: flow cytometry, freshly isolated resting human PBMCs (table title), γδ T cells.

T2 sequence (Q15116 25-288 limits assumed): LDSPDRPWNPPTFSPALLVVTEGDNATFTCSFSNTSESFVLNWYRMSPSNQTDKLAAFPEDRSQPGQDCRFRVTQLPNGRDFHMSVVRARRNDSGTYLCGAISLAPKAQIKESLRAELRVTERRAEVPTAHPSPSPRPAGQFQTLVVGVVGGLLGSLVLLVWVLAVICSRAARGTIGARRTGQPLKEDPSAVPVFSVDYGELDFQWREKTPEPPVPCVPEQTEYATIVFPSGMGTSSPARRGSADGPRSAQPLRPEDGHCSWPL
T1 sequence (Q07011 24-255): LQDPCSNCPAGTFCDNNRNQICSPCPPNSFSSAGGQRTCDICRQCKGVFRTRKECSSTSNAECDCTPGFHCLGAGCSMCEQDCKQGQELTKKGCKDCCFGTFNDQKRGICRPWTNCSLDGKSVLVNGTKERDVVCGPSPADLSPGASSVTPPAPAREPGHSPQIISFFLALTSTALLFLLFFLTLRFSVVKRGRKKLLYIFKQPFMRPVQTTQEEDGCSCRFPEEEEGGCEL

B1: monovalent PD1(0314)-targeted human 4-1BB ligand (71-254) containing Fc (kih) fusion molecule Construct 7.1 (Fc fusion)
chain 1: [about 200 residues not given here]GGGGSGGGGSREGPELSPDDPAGLLDLRQGMFAQLVAQNVLLIDGPLSWYSDPGLAGVSLTGGLSYKEDTKELVVAKAGVYYVFFQLELRRVVAGEGSGSVSLALHLQPLRSAAGAAALALTVDLPPASSEARNSAFGFQGRLLHLSAGQRLGVHLHTEARARHAWQLTQGATVLGLFRVTPEIPAGLPSPRSEGGGGSGGGGSRTVAAPSVFIFPPSDRKLKSGTASVVCLLNNFYPREAKVQWKVDNALQSGNSQESVTEQDSKDSTYSLSSTLTLSKADYEKHKVYACEVTHQGLSSPVTKSFNRGE[human IgG1 Fc with changes not given here]
chain 2: [about 200 residues not given here][about 120 residues not given here]
heavy: EVQLLESGGGLVQPGGSLRLSCAASGFSFSSYTMSWVRQAPGKGLEWVATISGGGRDIYYPDSVKGRFTISRDNSKNTLYLQMNSLRAEDTAVYYCVLLTGRVYFALDSWGQGTLVTVSSASTKGPSVFPLAPSSKSTSGGTAALGCLVKDYFPEPVTVSWNSGALTSGVHTFPAVLQSSGLYSLSSVVTVPSSSLGTQTYICNVNHKPSNTKVDKKVEPKSCDKTHTCPPCPAPEAAGGPSVFLFPPKPKDTLMISRTPEVTCVVVDVSHEDPEVKFNWYVDGVEVHNAKTKPREEQYNSTYRVVSVLTVLHQDWLNGKEYKCKVSNKALGAPIEKTISKAKGQPREPQVCTLPPSRDELTKNQVSLSCAVKGFYPSDIAVEWESNGQPENNYKTTPPVLDSDGSFFLVSKLTVDKSRWQQGNVFSCSVMHEALHNHYTQKSLSLSPGK
light: EIVLTQSPATLSLSPGERATLSCRASESVDTSDNSFIHWYQQKPGQSPRLLIYRSSTLESGIPARFSGSGSGTDFTLTISSLEPEDFAVYYCQQNYDVPWTFGQGTKVEIKRTVAAPSVFIFPPSDEQLKSGTASVVCLLNNFYPREAKVQWKVDNALQSGNSQESVTEQDSKDSTYSLSSTLTLSKADYEKHKVYACEVTHQGLSSPVTKSFNRGEC
notes: one PD1 Fab and an assembled trimeric 4-1BB ligand; CH1-CL crossover with charged residues; human IgG1 Fc knob-into-hole, P329G LALA
For B1, in the assay with human 4-1BB on cells [1], the “EC50 of NFκB-activation-induced Luciferase activity-curves, with CHO-k1-huPD1 clone 5” value (“EC50 … with CHO-k1-huPD1 clone 5” below) was 0.004 nM. The EC50 in assay [2] is 1.73 nM; in assay [3] it was 0.13 nM; with human 4-1BB on cells [4], 0.14 nM; in assay [5] it was 0.21 nM; in assay [6] it was 0.34 nM.

B2: bivalent PD1(0314)-targeted human 4-1BB ligand (71-254) containing Fc (kih) fusion molecule Construct 7.3 (Fc fusion)
heavy 1: EVQLLESGGGLVQPGGSLRLSCAASGFSFSSYTMSWVRQAPGKGLEWVATISGGGRDIYYPDSVKGRFTISRDNSKNTLYLQMNSLRAEDTAVYYCVLLTGRVYFALDSWGQGTLVTVSSASTKGPSVFPLAPSSKSTSGGTAALGCLVKDYFPEPVTVSWNSGALTSGVHTFPAVLQSSGLYSLSSVVTVPSSSLGTQTYICNVNHKPSNTKVDKKVEPKSCDKTHTCPPCPAPEAAGGPSVFLFPPKPKDTLMISRTPEVTCVVVDVSHEDPEVKFNWYVDGVEVHNAKTKPREEQYNSTYRVVSVLTVLHQDWLNGKEYKCKVSNKALGAPIEKTISKAKGQPREPQVCTLPPSRDELTKNQVSLSCAVKGFYPSDIAVEWESNGQPENNYKTTPPVLDSDGSFFLVSKLTVDKSRWQQGNVFSCSVMHEALHNHYTQKSLSLSPGGGGGSGGGGSREGPELSPDDPAGLLDLRQGMFAQLVAQNVLLIDGPLSWYSDPGLAGVSLTGGLSYKEDTKELVVAKAGVYYVFFQLELRRVVAGEGSGSVSLALHLQPLRSAAGAAALALTVDLPPASSEARNSAFGFQGRLLHLSAGQRLGVHLHTEARARHAWQLTQGATVLGLFRVTPEIPAGLPSPRSEGGGGSGGGGSREGPELSPDDPAGLLDLRQGMFAQLVAQNVLLIDGPLSWYSDPGLAGVSLTGGLSYKEDTKELVVAKAGVYYVFFQLELRRVVAGEGSGSVSLALHLQPLRSAAGAAALALTVDLPPASSEARNSAFGFQGRLLHLSAGQRLGVHLHTEARARHAWQLTQGATVLGLFRVTPEIPAGLPSPRSE
heavy 2: EVQLLESGGGLVQPGGSLRLSCAASGFSFSSYTMSWVRQAPGKGLEWVATISGGGRDIYYPDSVKGRFTISRDNSKNTLYLQMNSLRAEDTAVYYCVLLTGRVYFALDSWGQGTLVTVSSASTKGPSVFPLAPSSKSTSGGTAALGCLVKDYFPEPVTVSWNSGALTSGVHTFPAVLQSSGLYSLSSVVTVPSSSLGTQTYICNVNHKPSNTKVDKKV[human IgG1 Fc with changes not given here]GGGGSGGGGSREGPELSPDDPAGLLDLRQGMFAQLVAQNVLLIDGPLSWYSDPGLAGVSLTGGLSYKEDTKELVVAKAGVYYVFFQLELRRVVAGEGSGSVSLALHLQPLRSAAGAAALALTVDLPPASSEARNSAFGFQGRLLHLSAGQRLGVHLHTEARARHAWQLTQGATVLGLFRVTPEIPAGLPSPRSE
light: EIVLTQSPATLSLSPGERATLSCRASESVDTSDNSFIHWYQQKPGQSPRLLIYRSSTLESGIPARFSGSGSGTDFTLTISSLEPEDFAVYYCQQNYDVPWTFGQGTKVEIKRTVAAPSVFIFPPSDEQLKSGTASVVCLLNNFYPREAKVQWKVDNALQSGNSQESVTEQDSKDSTYSLSSTLTLSKADYEKHKVYACEVTHQGLSSPVTKSFNRGEC
notes: two PD1 Fabs, dimeric and monomeric 4-1BB ligand fused at the C-terminus of each heavy chain; P329G LALA, knob-into-hole
Take B2: the “EC50 … with CHO-k1-huPD1 clone 5” value in the assay with human 4-1BB on cells [1] is 0.004 nM. For the same molecule, the EC50 in assay [2] came to 1.43 nM; in assay [3] it was 0.11 nM; with human 4-1BB on cells [4], 0.28 nM; in assay [5] it was 0.17 nM; in assay [6], 0.13 nM.

B3: monovalent PD1(0314)-targeted human 4-1BB ligand (71-248) containing Fc (kih) fusion molecule Construct 7.5 (Fc fusion)
chain 1: REGPELSPDDPAGLLDLRQGMFAQLVAQNVLLIDGPLSWYSDPGLAGVSLTGGLSYKEDTKELVVAKAGVYYVFFQLELRRVVAGEGSGSVSLALHLQPLRSAAGAAALALTVDLPPASSEARNSAFGFQGRLLHLSAGQRLGVHLHTEARARHAWQLTQGATVLGLFRVTPEIPAGLGGGGSGGGGSREGPELSPDDPAGLLDLRQGMFAQLVAQNVLLIDGPLSWYSDPGLAGVSLTGGLSYKEDTKELVVAKAGVYYVFFQLELRRVVAGEGSGSVSLALHLQPLRSAAGAAALALTVDLPPASSEARNSAFGFQGRLLHLSAGQRLGVHLHTEARARHAWQLTQGATVLGLFRVTPEIPAGLGGGGSGGGGSRTVAAPSVFIFPPSDEQLKSGTASVVCLLNNFYPREAKVQWKVDNALQSGNSQESVTEQDSKDSTYSLSSTLTLSKADYEKHKVYACEVTHQGLSSPVTKSFNRGE[human IgG1 Fc with changes not given here]
chain 2: REGPELSPDDPAGLLDLRQGMFAQLVAQNVLLIDGPLSWYSDPGLAGVSLTGGLSYKEDTKELVVAKAGVYYVFFQLELRRVVAGEGSGSVSLALHLQPLRSAAGAAALALTVDLPPASSEARNSAFGFQGRLLHLSAGQRLGVHLHTEARARHAWQLTQGATVLGLFRVTPEIPAGLGGGGSGGGGSASTKGPSVFPLAPSSKSTSGGTAALGCLVKDYFPEPVTVSWNSGALTSGVHTFPAVLQSSGLYSLSSVVTVPSSSLGTQTYICNVNHKPSNTKVDKKVEPKSC
heavy: EVQLLESGGGLVQPGGSLRLSCAASGFSFSSYTMSWVRQAPGKGLEWVATISGGGRDIYYPDSVKGRFTISRDNSKNTLYLQMNSLRAEDTAVYYCVLLTGRVYFALDSWGQGTLVTVSSASTKGPSVFPLAPSSKSTSGGTAALGCLVKDYFPEPVTVSWNSGALTSGVHTFPAVLQSSGLYSLSSVVTVPSSSLGTQTYICNVNHKPSNTKVDKKVEPKSCDKTHTCPPCPAPEAAGGPSVFLFPPKPKDTLMISRTPEVTCVVVDVSHEDPEVKFNWYVDGVEVHNAKTKPREEQYNSTYRVVSVLTVLHQDWLNGKEYKCKVSNKALGAPIEKTISKAKGQPREPQVCTLPPSRDELTKNQVSLSCAVKGFYPSDIAVEWESNGQPENNYKTTPPVLDSDGSFFLVSKLTVDKSRWQQGNVFSCSVMHEALHNHYTQKSLSLSPGK
light: EIVLTQSPATLSLSPGERATLSCRASESVDTSDNSFIHWYQQKPGQSPRLLIYRSSTLESGIPARFSGSGSGTDFTLTISSLEPEDFAVYYCQQNYDVPWTFGQGTKVEIKRTVAAPSVFIFPPSDEQLKSGTASVVCLLNNFYPREAKVQWKVDNALQSGNSQESVTEQDSKDSTYSLSSTLTLSKADYEKHKVYACEVTHQGLSSPVTKSFNRGEC
notes: one PD1 Fab and an assembled trimeric 4-1BB ligand; CH1-CL crossover without charged residues; P329G LALA, knob-into-hole
Consider B3, for which the “EC50 … with CHO-k1-huPD1 clone 5” value with human 4-1BB on cells [1] was 0.006 nM. The EC50 in assay [2] is 3.33 nM; in assay [3], 0.28 nM; with human 4-1BB on cells [4], 0.36 nM; in assay [5], 0.38 nM; in assay [6] it was 0.42 nM.
